# PubChem BioAssay AID1345082 (National Center for Advancing Translational Sciences (NCATS), 2018)
# Among all 94,000 compounds or so, about 4,000 (4.3%) were called active. Inconclusive means that the source gave no clear call. Such entries were picked first, then a sample of the others. Calls come from the whole dose curve; as a rule, active = well fitted inhibition curve with a large enough effect; inconclusive = small, poorly fitted or top-dose-only effect; inactive = no such curve, though single readings can be large or run the other way. Potencies of inconclusive entries are doubtful fits and often do not repeat.
# Assay: Cytotoxic Profiling in NIH 3T3 Cell Line of Diverse Libraries Using Quantitative High-Throughput Screening; note: nearly all actives have a fitted effect of over 55% in size
# Conditions: NIH 3T3 viability, CellTiter-Glo ATP luminescence, 48-72 h; activity change, negative = cytotoxicity: at 96.7 µM (top of the series) unless noted; series mostly up to 96.7 µM
# Method in brief: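 ATP-dependent luminescence (CellTiter-Glo) served as the viability signal for NIH 3T3 cells treated with compound for 48 or 72 hr at 37 °C.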
# % is set by controls: 0 for no effect and ±100 for the full control effect; potency is the fitted concentration of half-maximal effect; tags give direction and shape of the fitted curve.
Structure (SMILES),Potency,"activity change, negative = cytotoxicity"
CCc1nc(-c2ccc(OC3CCN(CCc4ccccc4)C3)cc2)no1 (stereo not drawn),"inconclusive: 50.1 µM [inhibitor, partial curve, poor fit]",
Cc1nn(-c2ccccn2)c(C)c1[C@@H]1C=C[C@@H](NC(=O)c2cccs2)C1,"inconclusive: 79.4 µM [inhibitor, partial curve]",
O=C1CCN(C(=O)Cc2ccccc2)CCCC(CO)CCN1 (stereo not drawn),,inactive: -3.47%
O=C(NCc1ccc(Cl)cc1)c1nc2sccn2c1-c1ccc(C(F)(F)F)cc1,"inconclusive: 17.8 µM [inhibitor, full curve, poor fit]",
CCCCn1c(=O)c(C(=O)NCCc2ccc(F)cc2)nc2cccnc21,"inconclusive: 79.4 µM [inhibitor, single point]",
O=C(c1ccc(F)cc1)N1CCC(Cc2nc(-c3cnccn3)no2)CC1,"inconclusive: 50.1 µM [inhibitor, partial curve, poor fit]",
COc1ccc(CNC[C@H]2Cn3c(-c4ccc(Cl)cc4)cnc3CO2)cn1,"inconclusive: 112 µM [inhibitor, partial curve, poor fit]",
COc1ccc(CC(=O)NC2CCN(c3ccc4nnc(-c5ccccc5)n4n3)C2)cc1 (stereo not drawn),"inconclusive: 50.1 µM [inhibitor, partial curve, poor fit]",
CN1CCCN(C(=O)CCc2ccccc2)c2ccccc21,"inconclusive: 44.7 µM [inhibitor, partial curve, poor fit]",
O=C(c1ccccn1)N1CCC2(CC(c3cccnc3)=NO2)C1 (stereo not drawn),,inactive: -4.81%
O=C(Nc1cccc(F)c1)N1Cc2[nH]cnc2C[C@H]1c1nc(-c2ccc(Cl)cc2)no1,"inconclusive: 79.4 µM [inhibitor, single point]",
CSc1cccc(NC(=O)c2ccc3c(c2)N(C)C2CCCCCN2C3=O)c1 (stereo not drawn),active: 31.6 µM,
CN(C)S(=O)(=O)N1CCCC(CCc2cccc(F)c2)C1 (stereo not drawn),"inconclusive: 50.1 µM [inhibitor, partial curve, poor fit]",
O=C(Cc1c[nH]c2ccccc12)N1CCC2(CC1)CC(CO)N(C(=O)c1ccccc1)C2 (stereo not drawn),,inactive: -16.7%
CC(C)CCN1C[C@@H](CO)[C@H](c2nc(-c3cccnc3)no2)C1,,inactive: -15.9%
COc1ccccc1-c1[nH]nc2ncc(-c3ccccc3F)nc12,active: 35.5 µM,
COc1cccc(CN2C(=O)OC3(CCN(C(C)=O)CC3)C2(C)c2cccnc2)c1 (stereo not drawn),active: 89.1 µM,
Cc1cn2nnc(C(=O)NC3CCc4ccccc43)c2c(=O)[nH]1 (stereo not drawn),"inconclusive: 50.1 µM [inhibitor, partial curve, poor fit]",
O[C@@H]1CCC2CC1[C@@H](O)CN2Cc1ccc(-c2ccccc2)cc1 (stereo partly drawn),"inconclusive: 50.1 µM [inhibitor, partial curve, poor fit]",
COc1cccc(-c2cc3c(ccn3C)c(C(=O)NCCc3cnc[nH]3)n2)c1OC,"inconclusive: 63.1 µM [inhibitor, partial curve, poor fit]",
COc1ccc(NC(=O)COc2ccc(NC(=O)C3CC3)cn2)cc1,,inactive: -15.8%
COc1ccc(-c2ccc(C(=O)N3CCN(C(=O)C4CCCC4)CC3)cc2)nn1,,inactive: -23.3%

Structure (SMILES),Potency,"activity change, negative = cytotoxicity"
Cn1ncc(N2CCC(CNC(=O)c3ccccc3-c3ncn[nH]3)C2)cc1=O (stereo not drawn),,inactive: 0.525%
COc1cccc(-c2ccc(NC(=O)C3CCCN(Cc4cc(C(C)C)n[nH]4)C3)cc2)c1 (stereo not drawn),active: 39.8 µM,
COc1ccc(NC(=O)N[C@H]2CO[C@H]3[C@@H]2OC[C@@H]3n2nnnc2-c2ccc3c(c2)OCO3)cc1,"inconclusive: 44.7 µM [inhibitor, partial curve, poor fit]",
COc1cccc(-c2cccc(-c3nc(C4CCOCC4)nn3CCO)c2)c1,,inactive: -23.4%
CC1(C)N=C(c2ccccc2)C(=O)N1CC(N)=O,,inactive: -2.77%
COc1cccc(CN2CCN(C(=O)c3cnc4ccccn4c3=O)CC2=O)c1,,inactive: -20.9%
O=C(Nc1ccc(F)cc1)c1ccc2nc(-c3ccnc(Cl)c3)oc2c1,"inconclusive: 70.8 µM [inhibitor, partial curve, poor fit]",
CC1Oc2ccc(NC(=O)c3ccccc3Cl)cc2CN(Cc2ccc(F)cc2)C1=O (stereo not drawn),"inconclusive: 39.8 µM [inhibitor, partial curve, poor fit]",
COc1ccccc1CC(=O)N1CCC2(CC1)N=C(c1ccc(Cl)cc1)NO2,"inconclusive: 28.2 µM [inhibitor, full curve]",
CCN1CCN(C2(C(=O)N3CCC(COC)C3)Cc3ccccc3C2)CC1 (stereo not drawn),,inactive: 2.25%
COc1ccc(C(=O)N2C[C@@H](F)[C@@H](OCc3nc4ccc(C(F)(F)F)cc4[nH]3)C2)cc1,"inconclusive: 44.7 µM [inhibitor, partial curve, poor fit]",
CC(=O)Nc1ccc(CN2C(=O)OC3(CCN(C(=O)C4CCC4)CC3)C2(C)c2ccccc2)cc1 (stereo not drawn),"inconclusive: 15.8 µM [inhibitor, full curve, poor fit]",
CC1(CNc2ccccc2)COc2ccc(C(=O)NCCOc3ccccc3)cc2N1 (stereo not drawn),active: 31.6 µM,
Cc1ccc(CNc2ncncc2-c2nc(-c3ccccc3)no2)cc1,,inactive: -6.72%
CC(C)(C)c1cc(C[C@H]2CNCC[C@H]2CC(=O)Nc2nccs2)no1,"inconclusive: 126 µM [inhibitor, single point]",
O=C(NCCc1ccc(Cl)cc1)C1CCc2nnc(-c3ccc(Cl)nc3)n21 (stereo not drawn),,inactive: -10.9%
O=C(NCc1ccccc1F)c1noc(-c2ccc3c(c2)OCO3)n1,"inconclusive: 44.7 µM [inhibitor, partial curve, poor fit]",
CCN1CCC2(Cc3ccccc3CN([S+](=O)([O-])c3ccccc3)C2)C1 (stereo not drawn),"inconclusive: 70.8 µM [inhibitor, partial curve, poor fit]",
CC1(C)C(=O)NC(=O)N1CC(=O)N[C@H](Cc1ccccn1)C1CC(O)C1 (stereo partly drawn),,inactive: -4.06%
CC(C)N1CCCC2(CCN(S(=O)(=O)c3ccc(F)cc3F)C2)C1=O (stereo not drawn),"inconclusive: 89.1 µM [inhibitor, single point]",
COCC1CCN(c2ncc(C(C)(C)C(=O)O)c(N3CCOCC3)n2)CC1,"inconclusive: 39.8 µM [inhibitor, full curve]",
